In PMC4336329 (PLoS ONE, 2015):
The whole screen tested about 310,000 compounds, of which about 14,000 (4.5%) showed an effect of 50% or more. Effects have a minus sign here. This is one part of the list.

Each compound was assayed against human ether-à-go-go-related gene (hERG) potassium channel (human, UniProt Q12809) (assay: primary screen, population patch clamp on CHO cells stably expressing hERG).
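Note: peak tail current of the secondary pulse compared with the same well before compound.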

Chain of human ether-à-go-go-related gene (hERG) potassium channel (Q12809 whole entry, looked up): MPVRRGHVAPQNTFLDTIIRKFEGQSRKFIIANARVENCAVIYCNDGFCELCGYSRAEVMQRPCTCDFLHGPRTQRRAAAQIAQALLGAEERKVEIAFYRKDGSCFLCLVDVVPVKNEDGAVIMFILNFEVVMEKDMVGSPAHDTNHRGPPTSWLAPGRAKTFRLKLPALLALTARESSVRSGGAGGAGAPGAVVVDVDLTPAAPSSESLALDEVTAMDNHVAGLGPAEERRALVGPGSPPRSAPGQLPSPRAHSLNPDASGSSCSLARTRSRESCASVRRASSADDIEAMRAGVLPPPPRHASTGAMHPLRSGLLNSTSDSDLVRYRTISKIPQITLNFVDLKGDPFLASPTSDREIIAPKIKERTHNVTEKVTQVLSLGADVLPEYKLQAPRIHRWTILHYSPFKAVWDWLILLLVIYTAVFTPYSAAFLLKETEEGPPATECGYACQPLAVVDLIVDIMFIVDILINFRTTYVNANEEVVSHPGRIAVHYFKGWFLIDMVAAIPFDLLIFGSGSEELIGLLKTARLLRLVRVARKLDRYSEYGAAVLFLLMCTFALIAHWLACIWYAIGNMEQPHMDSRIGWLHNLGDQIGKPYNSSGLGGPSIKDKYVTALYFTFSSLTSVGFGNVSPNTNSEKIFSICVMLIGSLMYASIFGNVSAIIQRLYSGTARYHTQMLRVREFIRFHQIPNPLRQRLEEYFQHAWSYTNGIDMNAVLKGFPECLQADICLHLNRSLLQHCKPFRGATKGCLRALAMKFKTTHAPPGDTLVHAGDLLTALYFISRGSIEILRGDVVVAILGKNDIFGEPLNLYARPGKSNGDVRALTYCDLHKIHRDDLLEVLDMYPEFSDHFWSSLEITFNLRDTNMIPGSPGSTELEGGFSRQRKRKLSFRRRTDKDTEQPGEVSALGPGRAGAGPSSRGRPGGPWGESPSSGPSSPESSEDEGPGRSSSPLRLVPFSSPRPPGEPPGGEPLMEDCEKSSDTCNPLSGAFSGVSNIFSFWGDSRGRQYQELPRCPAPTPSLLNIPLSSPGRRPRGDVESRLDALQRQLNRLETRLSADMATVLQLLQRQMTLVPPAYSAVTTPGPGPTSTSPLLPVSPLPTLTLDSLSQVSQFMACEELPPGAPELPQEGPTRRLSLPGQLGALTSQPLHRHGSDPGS

SMILES	hERG current change (%, negative = inhibition) at 10uM [%]
Cc1ccc(C(=O)OCC(=O)Nc2ccc(N(C)C)cc2)cc1NC(=O)c1ccco1	0.251
Fc1ccccc1-c1nc(-c2ccncc2)no1	1.32
Cc1nnc(NC(=O)c2cccc(S(=O)(=O)N3CCc4ccccc43)c2)s1	-3.52
O=c1ncn(-c2cccc(F)c2)c2ncccc12	18.4
Cc1cc(C)cc(N2CC(C(=O)NC3CCCCC3)CC2=O)c1 (stereo not drawn)	5.86
COC(=O)c1cc(OC)c(OC)cc1NC(=S)N1CCN(C)CC1	10.8
COc1ccc(/C=N/NC(=O)c2cccnc2)c(C(=O)O)c1OC	9.69
CCN(CC)Cc1cc(C(=O)O)c(-c2ccccc2)o1.Cl	10.5
O=C(O)c1ccc(NS(=O)(=O)c2ccc(C(=O)Nc3ccccc3)cc2)cc1	-8.65
CN(CC(=O)NCC(c1ccccc1)N1CCCC1)S(=O)(=O)c1ccc(Cl)cc1 (stereo not drawn)	-49.3
O=[N+]([O-])c1ccccc1-c1ccc(/C=N/n2cnnc2)o1	-29.6
COc1cc2c(cc1OC)CN(c1nc(-c3cccnc3)nc3ccccc13)CC2	0.829
CC(C)(C)c1ccc(C(=O)Nc2ccc(F)cc2)s1	6.85
Cn1nc([N+](=O)[O-])nc1Sc1ccc(C(C)(C)C)cc1	-11
O=C(NC1CCCCC1)N1CCc2ccccc2C1	8.85
COCC(C)NC(=O)CSc1nnc(-c2cccc(S(=O)(=O)N3CCCCC3)c2)o1 (stereo not drawn)	7.45
C=CCNc1nc(C(F)(F)F)nc2c1nnn2Cc1ccccc1Cl	-6.29
CCc1ccc(-c2csc3ncn(Cc4ccc(C(=O)O)cc4)c(=O)c23)cc1	4.9
O=C(Nc1c(F)cc(F)cc1Br)c1cccnc1	8.61
COc1ccc(OCCCC(=O)OC(C)C(=O)Nc2ccc(NC(C)=O)cc2)cc1 (stereo not drawn)	11
O=S(=O)(Nc1ncccn1)c1ccc(NC(=S)NCCc2ccc(Cl)cc2)cc1	28.9
CCc1nc(-c2cc3ccc(C)cc3[nH]c2=O)no1	-27.4

SMILES	hERG current change (%, negative = inhibition) at 10uM [%]
CCOC(=O)C1CCCN(C(=O)c2ccc(CNS(=O)(=O)c3ccc(C)cc3)cc2)C1 (stereo not drawn)	-3.9
CCOC(=O)C1C(=O)OC2(CCCCC2)C1C(=O)OCC (stereo not drawn)	6.62
CN1C(=O)CC(c2ccccc2)Nc2ccccc21.Cl (stereo not drawn)	0.871
O=C(CCNC(=O)N1CCn2c1nc1ccccc12)NCc1ccc(F)cc1	-6.29
Cc1cc(C(=O)NC2CCCC2)on1	-10.8
O=C(c1ccc(Cl)c(S(=O)(=O)N2CCCC2)c1)N1CCN(c2ccccc2F)CC1	-20.6
CC(NC(=O)C1CCC(CNc2c(N3CCCCC3)c(=O)c2=O)CC1)c1ccccc1 (stereo not drawn)	-2.3
COc1ccc(OC)c(C2C3=C(COC3=O)Nc3cc4c(cc32)OCO4)c1 (stereo not drawn)	6.75
COCC(C)n1c(C)cc(C(=O)COC(=O)c2ccc3c(c2)NC(=O)CS3)c1C (stereo not drawn)	2.7
O=C(Oc1oc(-c2ccco2)nc1C=Nc1ccccc1)c1ccoc1	13.6
CCOC(=O)c1sc(N2C(=O)C(O)=C(C(=O)c3ccco3)C2c2ccc(C)o2)nc1C (stereo not drawn)	6.21
COc1ccccc1NC(=O)C1=C(C)NC(=O)NC1c1ccc(C)cc1 (stereo not drawn)	5.17
c1ccc(-c2noc(CSc3nnnn3C3CCCCC3)n2)cc1	-17.8
CCn1cc(/C=N/NC(=O)c2ccc3c(c2)OCO3)c(C)n1	8.17
COc1ccc(OC)c(S(=O)(=O)N2CCC(C(=O)N3CCN(c4ccc(F)cc4)CC3)CC2)c1	-78
CCn1c(SCC(=O)N2CCCCC2)nc2c(c1=O)SCC2	8.15
Cc1cc(=O)oc2c(C)c(OCC(=O)NCCCN3CCOCC3)ccc12	14.4
CSc1nc(Cc2ccc(Cl)cc2)nc2ccccc12	-16.7
Cc1noc(C)c1C(=O)OCC(=O)Nc1ccccc1SCC#N	-10.5
COc1cccc(NC(=O)CN(C)C(=O)CSc2nc(C)cc(C)n2)c1	-1.24
C/C(=N\NC(=O)COc1cc(C)cc(C)c1)c1cccc(NC(=O)C2CCC2)c1	-11.1
CC(Oc1ccc2c(-c3ccccc3)cc(=O)oc2c1)C(=O)NCc1ccccn1 (stereo not drawn)	-50.9

SMILES	hERG current change (%, negative = inhibition) at 10uM [%]
COc1ccc(C2(C(=O)N3CCOCC3)CCCC2)cc1	15.4
O=C(Nc1ccc(Cl)cn1)c1cc(S(=O)(=O)N2CCCCC2)ccc1Cl	-6.08
Cc1cccc(NC(=O)c2onc3c2CCCC3)n1	-9.16
Cn1c(=O)c2[nH]c(N3CCOCC3)nc2n(-c2ccccc2)c1=O	7.64
CC(C)Oc1ccc(C(=O)NC(C)(C)CO)cc1	19.6
COc1cc(Br)cc(C(c2c(C)n(C)n(-c3ccccc3)c2=O)c2c(C)n(C)n(-c3ccccc3)c2=O)c1O	2.99
Cc1ccc(S(=O)(=O)NC2=NCN(C3CCN(Cc4ccccc4)CC3)CN2)cc1	-15.4
COC(=O)CN1C(=O)[C@H]2[C@@H](/C=C/c3ccccc3)N3C(=O)CN(CC4CC4)C(=O)[C@@]3(Cc3ccccc3)[C@H]2C1=O	6.01
CCCN(C(=O)CCNC(=O)Cn1cnc2ccccc2c1=O)c1cccc(Cl)c1	-2.75
Cc1ccc(NC(=O)C(C)C(=O)Nc2ccc(C)cc2)cc1	14.3
CCc1ccc(S(=O)(=O)c2n[nH]n3c2nc(=O)c2ccccc23)cc1	-28.5
CCOC(=O)c1cc(C(=O)OCC)c2cc(Br)ccc2n1	-16.5
Cc1cc(C)nc(NC(=O)/C=C/c2ccccc2Cl)c1	8.35
O=C(COc1ccc2c(-c3ccccc3)cc(=O)oc2c1)N[C@@H](Cc1c[nH]c2ccc(O)cc12)C(=O)O	21.6
CCOC(=O)c1sc2nc(N3CCOCC3)c3c(c2c1N)CC(C(C)C)OC3 (stereo not drawn)	15.2
C=CCNC(=O)CN1C(=O)c2cccc3cccc1c23	-4.21
O=C(Nc1cc2c(cc1Br)OCCCO2)c1cccnc1	-2.34
O=C(Nc1nncs1)c1cccc(S(=O)(=O)N2CCOCC2)c1	3.17
COc1ccc(C(=O)n2nc(-c3ccc(C)cc3)nc2N)cc1OC	12.1
CC1CCCN(S(=O)(=O)c2ccc3c(c2)C(C)(C)C(=O)N3C)C1 (stereo not drawn)	9.32
CC(C)(C)NC(=O)CSc1nnc(NC(=O)c2ccccc2Cl)s1	6.62
CC(C)Cc1csc(NC(=O)c2ccc(Br)cc2)c1C(=O)O	35.7

SMILES	hERG current change (%, negative = inhibition) at 10uM [%]
Fc1ccc(CO/N=C2\CCCc3nonc32)cc1	-39.8
O=C(CNC(=O)c1cc2ccccc2o1)NCc1cccs1	15.2
CCC(C)N=C1CC(C)(C)CC(=O)/C1=C(/O)Cc1ccccc1 (stereo not drawn)	-4.03
COc1ccccc1N1CCN(/N=C/c2ccc([N+](=O)[O-])cc2)CC1	2.79
COc1ccccc1-c1cc(C(=O)N2CCOCC2)no1	10.5
Cc1ccc(Cl)c(OCC(=O)OC(C)C(=O)NC2CC2)c1 (stereo not drawn)	-3.46
COc1ccc(Cn2c(C(C)C)nc3sc4ccccc4c(=O)c3c2=O)cc1	12.4
CN(C)c1ccc(C(CNS(=O)(=O)c2cccc([N+](=O)[O-])c2)N2CCOCC2)cc1 (stereo not drawn)	-10.9
Nc1ccc(S(=O)(=O)N2CCc3ccccc32)cc1	10.8
CC(=O)Nc1cccc(-c2nnc(SCC(=O)n3c4c(c5ccccc53)CCCC4)n2C)c1	2.33
Cc1[nH]nc(SCC(=O)NCC(C)C)c1[N+](=O)[O-]	6.45
Cc1csc(CN(C)C(=O)CC2C(=O)NCCN2Cc2ccc(F)cc2Cl)n1 (stereo not drawn)	-13.5
Cc1ccc(NC(=O)c2ccc3nc[nH]c3c2)cc1C	-5.53
O=C(Nc1ccc2c(c1)CCCN2C(=O)c1cccs1)c1c(F)cccc1F	1.56
CNC(=O)N(O)C1N(/N=C/c2ccc(SC)cc2)C(=S)SC1(C)C (stereo not drawn)	26.3
Cc1ccc([N+](=O)[O-])cc1S(=O)(=O)N1CCC(C)CC1	6.62
CCN(CC)c1ccc(/C=N/NC(=O)Cc2cccs2)c(O)c1	9.91
COc1ccccc1C(=O)OCc1nc(N)nc(Nc2ccccc2C)n1	-2.18
CN(C)c1ccnc2sc(C(=O)NCc3ccccc3)c(N)c12	-27.6
COc1cc(C(=O)Nc2ccc(-n3cnnn3)c(C)c2)cc(OC)c1OC	-4.29
CC(=O)Nc1ccc(NC(=O)Cn2c(=O)n(-c3ccccc3)c(=O)c3oc4ccccc4c32)cc1	-19.8
